Experiment in all cases: biochemical
Format in all cases: binding

One test deals with T1, UL50_C79S+UL53 (Human cytomegalovirus, UniProt P16794).
T1 construct: GST (N, cleaved yes); 13-residue glycine-serine linker […]; made in house; host or cells: E. coli BL21 (DE3) RIPL
Conditions: 3.13 μM compound, replicates, read-out: normalized FRET signal relative to control without inhibitor.

The target in the next test is T2, HCMV UL50-UL53 (Human cytomegalovirus, UniProt P16794).
T2 construct: GST (N, cleaved yes); 13-residue glycine-serine linker […]; made in house; host or cells: E. coli BL21 (DE3) RIPL
The following applies: WT UL50-UL53; 3.13 μM compound; replicates.

The next test addresses T3, UL50_C54S+UL53 (Human cytomegalovirus, UniProt P16794).
T3 construct: GST (N, cleaved yes); 13-residue glycine-serine linker […]; made in house; host or cells: E. coli BL21 (DE3) RIPL
Conditions: 3.13 μM compound, replicates, read-out: normalized FRET signal relative to control without inhibitor.

Each structure is given as a SMILES string.

On to `C=CC(=O)Nc1cccc(Oc2ccnc3[nH]ccc23)c1` [GK2], for which the remaining activity at 3.13 µM amounted to 100% at UL50_C79S+UL53 and 98% on UL50_C54S+UL53. The “normalized FRET signal relative to control without inhibitor” value on HCMV UL50-UL53 was 92.0000.
